According to the supplement of paper PMC12217912:
The list shows a part of the results. Sequences were assembled here from the parent chain. Values near 0.05 are background.

B1: TEV protease; numbered along this chain (parent)
chain: MGESLFKGPRDYNPISSSICHLTNESDGHTTSLYGIGFGPFIITNKHLFRRNNGTLVVQSLHGVFKVKDTTTLQQHLVDGRDMIIIRMPKDFPPFPQKLKFREPQREERICLVTTNFQTKSMSSMVSDTSCTFPSGDGIFWKHWIQTKDGQCGSPLVSTRDGFIVGIHSASNFTNTNNYFTSVPKNFMELLTNQEAQQWVSGWRLNADSVLWGGHKVFMVKPEEPFQPVKEATQL

Variants of: B1
Experiment: raw area under fraction-flipped curve 0-4 h after induction (AUC4h, not background-subtracted), DNA-recorder readout of cleavage of the substrate (dimensionless); higher = more cleavage of the substrate by the protease variant
Settings: temperature: 34 °C; time window: 0-4 h after rhamnose induction
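Note: Bxb1 expression induced with 0.2% (w/v) L-rhamnose at OD600 near 0.5, cultures sampled hourly, flipped fraction per protease–substrate barcode pair counted by paired-end Illumina sequencing.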

Row | Variant | area with substrate ECLYFQS | area with substrate EELYFQS | area with substrate EILYFQS | area with substrate EKLYFQS | area with substrate EQLYFQS | area with substrate ERLYFQS | area with substrate ESLYFQS | area with substrate EWLYFQS | area with substrate EYLYFQS | area with substrate EDLYFQS | area with substrate EGLYFQS | area with substrate EHLYFQS | area with substrate EPLYFQS | area with substrate EVLYFQS | area with substrate ETLYFQS | area with substrate EFLYFQS | area with substrate ELLYFQS | area with substrate EMLYFQS
1 | MGESLFKGPRDYNPISSSICHLTNESDGHTTSLYGIGFGPFIITNKHLFRRNNGTLVVQSLHGVFKVKDTTTLQQHLVDGRDMIIIRMPKDFPPFPQKLKFREPQREERICLVTTNFQTKSMSSMVSDTSCTFPSGDGIFWAHWIQTKDGQCGSPLVSTRDGFIVGIHSASNFTNTNNYFTSVPKNFMELLTNQEAQQWVSGWRLNADSVLWGGHKVFMVKPEEPFQPVKEATQL [K142A] | 0.114 | 0.0807 | 0.0926 | 0.106 | 0.104 | 0.114 | 0.128 | 0.093 | 0.077 | – | – | – | – | – | – | – | – | –
2 | MGESLFKGPRDYNPISSSICHLTNESDGHTTSLYGIGFGPFIITNKHLFRRNNGTLVVQSLHGVFKVKDTTTLQQHLVDGRDMIIIRMPKDFPPFPQKLKFREPQREERICLVTTNFQTKSMSSMVSDTSCTFPSGDGIFWKFWIQTKDGQCGSPLVSTRDGFIVGIHSASNFTNTNNYFTSVPKNFMELLTNQEAQQWVSGWRLNADSVLWGGHKVFMVKPEEPFQPVKEATQL [H143F] | 0.0928 | – | 0.0886 | – | 0.135 | 0.106 | 0.111 | – | – | 0.137 | 0.0782 | 0.116 | 0.119 | 0.094 | – | – | – | –
3 | MGESLFKGPRDYNPISSSICHLTNESDGHTTSLYGIGFGPFIITNKHLFRRNNGTLVVQSLHGVFKVKDTTTLQQHLVDGRDMIIIRMPKDFPPFPQKLKFREPQREERICLVTTNFQTKSMSSMVSDTSCTFPSGDGIFWKHWLQTKDGQCGSPLVSTRDGFIVGIHSASNFTNTNNYFTSVPKNFMELLTNQEAQQWVSGWRLNADSVLWGGHKVFMVKPEEPFQPVKEATQL [I145L] | 0.0982 | – | – | – | – | – | 0.0758 | – | 0.08 | 0.106 | – | – | – | – | 0.119 | – | – | –
4 | MGESLFKGPRDYNPISSSICHLTNESDGHTTSLYGIGFGPFIITNKHLFRRNNGTLVVQSLHGVFKVKDTTTLQQHLVDGRDMIIIRMPKDFPPFPQKLKFREPQREERICLVTTNFQTKSMSSMVSDTSCTFPSGDGIFWKHWMQTKDGQCGSPLVSTRDGFIVGIHSASNFTNTNNYFTSVPKNFMELLTNQEAQQWVSGWRLNADSVLWGGHKVFMVKPEEPFQPVKEATQL [I145M] | 0.0812 | – | 0.0788 | 0.0893 | – | 0.0719 | 0.0726 | – | – | – | – | 0.0686 | – | 0.0716 | 0.0883 | 0.0789 | 0.0956 | 0.0802
5 | MGESLFKGPRDYNPISSSICHLTNESDGHTTSLYGIGFGPFIITNKHLFRRNNGTLVVQSLHGVFKVKDTTTLQQHLVDGRDMIIIRMPKDFPPFPQKLKFREPQREERICLVTTNFQTKSMSSMVSDTSCTFPSGDGIFWKHWIATKDGQCGSPLVSTRDGFIVGIHSASNFTNTNNYFTSVPKNFMELLTNQEAQQWVSGWRLNADSVLWGGHKVFMVKPEEPFQPVKEATQL [Q146A] | 0.093 | – | 0.112 | 0.113 | 0.102 | – | 0.114 | 0.0987 | 0.103 | 0.135 | – | 0.136 | 0.123 | – | 0.138 | – | – | 0.0852
6 | MGESLFKGPRDYNPISSSICHLTNESDGHTTSLYGIGFGPFIITNKHLFRRNNGTLVVQSLHGVFKVKDTTTLQQHLVDGRDMIIIRMPKDFPPFPQKLKFREPQREERICLVTTNFQTKSMSSMVSDTSCTFPSGDGIFWKHWIHTKDGQCGSPLVSTRDGFIVGIHSASNFTNTNNYFTSVPKNFMELLTNQEAQQWVSGWRLNADSVLWGGHKVFMVKPEEPFQPVKEATQL [Q146H] | 0.0991 | – | 0.108 | – | 0.128 | 0.0993 | 0.111 | – | – | 0.173 | 0.079 | 0.0911 | 0.142 | 0.0985 | – | – | – | 0.153
7 | MGESLFKGPRDYNPISSSICHLTNESDGHTTSLYGIGFGPFIITNKHLFRRNNGTLVVQSLHGVFKVKDTTTLQQHLVDGRDMIIIRMPKDFPPFPQKLKFREPQREERICLVTTNFQTKSMSSMVSDTSCTFPSGDGIFWKHWISTKDGQCGSPLVSTRDGFIVGIHSASNFTNTNNYFTSVPKNFMELLTNQEAQQWVSGWRLNADSVLWGGHKVFMVKPEEPFQPVKEATQL [Q146S] | 0.0935 | 0.124 | – | – | – | 0.106 | 0.0958 | 0.112 | – | – | – | – | – | – | – | – | – | –
8 | MGESLFKGPRDYNPISSSICHLTNESDGHTTSLYGIGFGPFIITNKHLFRRNNGTLVVQSLHGVFKVKDTTTLQQHLVDGRDMIIIRMPKDFPPFPQKLKFREPQREERICLVTTNFQTKSMSSMVSDTSCTFPSGDGIFWKHWIWTKDGQCGSPLVSTRDGFIVGIHSASNFTNTNNYFTSVPKNFMELLTNQEAQQWVSGWRLNADSVLWGGHKVFMVKPEEPFQPVKEATQL [Q146W] | 0.146 | – | – | 0.159 | 0.165 | 0.118 | 0.181 | 0.0766 | 0.152 | 0.181 | 0.114 | – | 0.175 | 0.132 | 0.176 | 0.167 | – | 0.189
9 | MGESLFKGPRDYNPISSSICHLTNESDGHTTSLYGIGFGPFIITNKHLFRRNNGTLVVQSLHGVFKVKDTTTLQQHLVDGRDMIIIRMPKDFPPFPQKLKFREPQREERICLVTTNFQTKSMSSMVSDTSCTFPSGDGIFWKHWIQAKDGQCGSPLVSTRDGFIVGIHSASNFTNTNNYFTSVPKNFMELLTNQEAQQWVSGWRLNADSVLWGGHKVFMVKPEEPFQPVKEATQL [T147A] | 0.0725 | – | 0.086 | – | 0.068 | 0.0751 | 0.0909 | – | 0.137 | 0.109 | – | – | – | 0.0744 | 0.0964 | – | 0.0648 | 0.0919
10 | MGESLFKGPRDYNPISSSICHLTNESDGHTTSLYGIGFGPFIITNKHLFRRNNGTLVVQSLHGVFKVKDTTTLQQHLVDGRDMIIIRMPKDFPPFPQKLKFREPQREERICLVTTNFQTKSMSSMVSDTSCTFPSGDGIFWKHWIQTVDGQCGSPLVSTRDGFIVGIHSASNFTNTNNYFTSVPKNFMELLTNQEAQQWVSGWRLNADSVLWGGHKVFMVKPEEPFQPVKEATQL [K148V] | 0.0747 | 0.107 | 0.0914 | 0.195 | 0.134 | 0.105 | 0.107 | – | 0.0934 | 0.112 | 0.117 | 0.105 | 0.0668 | 0.108 | – | – | – | 0.128
